# Test results taken from ChEMBL document CHEMBL5606460, “ASAP - DENV-2 NS2B-NS3 protease fluorescence single point” (2024).
# The campaign covered roughly 2,000 compounds. About 110 (5.5%) showed an effect of 50% or more. The list shows a part of the results. Non-standard residues stand in square brackets, D forms with d. Residues, ends and D or L forms follow the SMILES beside them. Phg = N[C@H](C(=O)O)c1ccccc1; 4Amb = NCc1ccc(C(=O)O)cc1; Nle = CCCC[C@H](N)C(=O)O
# Molecular target: Genome polyprotein (dengue virus type 2) (UniProt P29990)
# [1] = Thailand/16681/1984, Concentration 25.0 uM, Number of replicates 1.0
smiles,measurement,setting,value
O=C(O)[C@H](c1c[nH]c2ccccc12)N1CCC(c2cnc3ccc[nH]c2-3)CC1,inhibition,"Thailand/16681/1984, Concentration 49.5 uM, Number of replicates 2.0, Standard deviation 2.9336110336729484 %",-1.93%
same,inhibition,"Thailand/16681/1984, Concentration 99.01 uM, Number of replicates 2.0, Standard deviation 1.2688833051000123 %",-1.4%
same,inhibition,"Thailand/16681/1984, Concentration 198.0 uM, Number of replicates 2.0, Standard deviation 1.8509089452057481 %",0.519%
COc1cc(CC(=O)NCc2cccnc2)nc(N2CCNCC2)n1,inhibition,"Thailand/16681/1984, Concentration 49.5 uM, Number of replicates 2.0, Standard deviation 1.473545535483215 %",-5.12%
same,inhibition,"Thailand/16681/1984, Concentration 99.01 uM, Number of replicates 2.0, Standard deviation 1.7989399422367844 %",-4.77%
same,inhibition,"Thailand/16681/1984, Concentration 198.0 uM, Number of replicates 2.0, Standard deviation 1.3802101593440819 %",-3.61%
Cc1cc(CO)c2cccc(Cc3ccccc3NC(=O)CCC3CCNCC3)c2n1,inhibition,"Thailand/16681/1984, Concentration 49.95 uM, Number of replicates 2.0, Standard deviation 0.7055143046624119 %",-4.33%
same,inhibition,"Thailand/16681/1984, Concentration 99.9 uM, Number of replicates 2.0, Standard deviation 1.236554143481246 %",6.21%
Cc1c(C(=O)NCc2nnc([C@H]3CCCO3)[nH]2)ccc(O)c1NC(=O)c1ccncc1F,inhibition,"Thailand/16681/1984, Concentration 49.5 uM, Number of replicates 2.0, Standard deviation 0.7978838014742209 %",-1.49%
same,inhibition,"Thailand/16681/1984, Concentration 99.01 uM, Number of replicates 2.0, Standard deviation 0.2367526511785791 %",-0.579%
same,inhibition,"Thailand/16681/1984, Concentration 198.0 uM, Number of replicates 2.0, Standard deviation 0.9012929276836096 %",0.488%
CCN(Cc1cnn(CC)c1)C(=O)C1CCN(c2ccc(C=O)cc2)CC1,inhibition,[1],12.7%
CCOC(=O)c1cc(CNCc2nnc3ccccn23)[nH]n1,inhibition,"Thailand/16681/1984, Concentration 49.5 uM, Number of replicates 2.0, Standard deviation 0.017813955579008514 %",6.64%
same,inhibition,"Thailand/16681/1984, Concentration 99.01 uM, Number of replicates 2.0, Standard deviation 0.5926797733534107 %",7.63%
same,inhibition,"Thailand/16681/1984, Concentration 198.0 uM, Number of replicates 2.0, Standard deviation 1.0587355780894199 %",6.43%
Cc1cc(CO)c2cccc(Cc3cccc(C(=O)N[C@@H](CCC(N)=O)C(=O)O)c3)c2n1,inhibition,"Thailand/16681/1984, Concentration 49.95 uM, Number of replicates 2.0, Standard deviation 0.9076569964416333 %",26.5%
same,inhibition,"Thailand/16681/1984, Concentration 99.9 uM, Number of replicates 2.0, Standard deviation 0.5346782919570826 %",79%
CC(C)Cn1cccc(C(=O)NC2CCNCC2)c1=O,inhibition,"Thailand/16681/1984, Concentration 49.5 uM, Number of replicates 2.0, Standard deviation 3.422975942243665 %",-4.24%
same,inhibition,"Thailand/16681/1984, Concentration 99.01 uM, Number of replicates 2.0, Standard deviation 3.654834353859189 %",-4.24%
same,inhibition,"Thailand/16681/1984, Concentration 198.0 uM, Number of replicates 2.0, Standard deviation 3.0504034490850622 %",-4.18%
O=Cc1ccc(N2CCC(C(=O)NC[C@H]3COc4ccccc4O3)CC2)cc1,inhibition,[1],15.5%
COc1ccc(-c2ccccc2C(=O)Nc2cnn(C)c2)cn1,inhibition,"Thailand/16681/1984, Concentration 49.5 uM, Number of replicates 2.0, Standard deviation 0.48212720676586884 %",0.329%
same,inhibition,"Thailand/16681/1984, Concentration 99.01 uM, Number of replicates 2.0, Standard deviation 3.4527724997354117 %",4.65%
same,inhibition,"Thailand/16681/1984, Concentration 198.0 uM, Number of replicates 2.0, Standard deviation 0.5868971730541553 %",-0.295%
O=Cc1ccc(N2CCC(C(=O)NCc3ccc4ccccc4n3)CC2)cc1,inhibition,[1],12.8%
CCOc1cc(COc2cccnc2F)nc(N2CCNCC2)n1,inhibition,"Thailand/16681/1984, Concentration 49.5 uM, Number of replicates 2.0, Standard deviation 1.805689675732107 %",-4.84%
same,inhibition,"Thailand/16681/1984, Concentration 99.01 uM, Number of replicates 2.0, Standard deviation 1.6503948919466847 %",-4.71%
same,inhibition,"Thailand/16681/1984, Concentration 198.0 uM, Number of replicates 2.0, Standard deviation 2.8994265256358838 %",-4.55%
COc1cc(COc2cncc3ccccc23)nc(N2CCNCC2)n1,inhibition,"Thailand/16681/1984, Concentration 49.5 uM, Number of replicates 2.0, Standard deviation 1.4253912437729723 %",5.6%
same,inhibition,"Thailand/16681/1984, Concentration 99.01 uM, Number of replicates 2.0, Standard deviation 4.778700721357949 %",12.2%
same,inhibition,"Thailand/16681/1984, Concentration 198.0 uM, Number of replicates 2.0, Standard deviation 4.8205002798371135 %",22.4%
CN(Cc1nc(-c2cccnc2)no1)C(=O)C1CCN(c2ccc(C=O)cc2)CC1,inhibition,[1],13%
O=C(c1nc2ccccc2[nH]1)N1CCC[C@H](c2cc3ccccc3[nH]2)C1,inhibition,"Thailand/16681/1984, Concentration 49.5 uM, Number of replicates 2.0, Standard deviation 1.1995471874399526 %",5.26%
same,inhibition,"Thailand/16681/1984, Concentration 99.01 uM, Number of replicates 2.0, Standard deviation 0.2095396322802774 %",5.89%
same,inhibition,"Thailand/16681/1984, Concentration 198.0 uM, Number of replicates 2.0, Standard deviation 0.1197375107455095 %",8.94%
O=Cc1ccc(N2CCC(C(=O)N3CCc4c(Br)cccc4C3)CC2)cc1,inhibition,[1],2.83%
Cc1cc(CO)c2cccc(Cc3ccccc3NC(=O)[C@H](N)CCO)c2n1,inhibition,"Thailand/16681/1984, Concentration 49.95 uM, Number of replicates 2.0, Standard deviation 1.1804730410904682 %",-2.49%
same,inhibition,"Thailand/16681/1984, Concentration 99.9 uM, Number of replicates 2.0, Standard deviation 1.1029287785847963 %",-0.758%
CCCC[C@H](NC(C)=O)C(=O)N[C@H](C(=O)NCc1ccc(C(N)=O)cc1)c1ccccc1 (Ac-[Nle]-[Phg]-[4Amb]-NH2),inhibition,"Thailand/16681/1984, Concentration 49.5 uM, Number of replicates 2.0, Standard deviation 0.4432432329236086 %",-1.46%
same,inhibition,"Thailand/16681/1984, Concentration 99.01 uM, Number of replicates 2.0, Standard deviation 0.9541533154251546 %",-0.354%
same,inhibition,"Thailand/16681/1984, Concentration 198.0 uM, Number of replicates 2.0, Standard deviation 1.9838414541082603 %",1.79%
C[C@H](NC(=O)C1CCN(c2ccc(C=O)cc2)CC1)c1ccc(N2CCOCC2)cc1,inhibition,[1],15.2%
